These results are taken from PubChem BioAssay (NCI).

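How tested: cells in 96-well plates exposed to compound for 48 hours at five concentrations. Abbreviation: GI50, concentration required for 50% inhibition of growth. TGI denotes the concentration required for complete inhibition of growth.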

In this assay the test system is NCI-H322M lung. Description: inhibition of tumour cell growth, NCI panel, 48 h.

As for `Cc1nc2cnc(N)c(C#Cc3cncc(C(=O)Nc4ccc(Cl)c(C(F)(F)F)c4)c3)c2nc1C`, the GI50 was 3.7 µM and the TGI amounted to 20.8 µM.
